According to patent US11897961B2, “Anti-CD123 antibodies and conjugates and derivatives thereof” (IMMUNOGEN, INC., priority 2015, dated 2024):
“And” between values parts separate entries of the source, which are not always exact repeats. Identical values can stand only once.

Columns and labels:
[1] = system: AML progenitor cells; assay: In vitro cytotoxicity on AML patient samples (AML progenitor cells); format: cell-based, human; conditions: unselected AML patient samples, FIG. 18
[2] = system: K562 cells; assay: In vitro cytotoxicity assay, K562 (CD123 negative); format: cell-based, human; conditions: read-out: huCD123-CysMab-D5 IC50 pMol
[3] = system: EOL-1 cells; assay: In vitro cytotoxicity assay (WST-8), EOL-1; conditions: read-out: huCD123-CysMab-D5 IC50 pMol
[4] = system: HNT-34 cells; assay: In vitro cytotoxicity assay (WST-8), HNT-34; conditions: read-out: huCD123-CysMab-D5 IC50 pMol; HNT-34, EVI1 OX
[5] = biological target: T1, CD123-expressing HNT-34 cells (Homo sapiens, UniProt P26951); assay: Flow cytometry binding to HNT-34 cells; conditions: FIGS. 7B and 7C
T1 construct: endogenous in cells; host or cells: HNT-34 (acute myeloid leukemia cell line)
T1 sequence (P26951 19-378): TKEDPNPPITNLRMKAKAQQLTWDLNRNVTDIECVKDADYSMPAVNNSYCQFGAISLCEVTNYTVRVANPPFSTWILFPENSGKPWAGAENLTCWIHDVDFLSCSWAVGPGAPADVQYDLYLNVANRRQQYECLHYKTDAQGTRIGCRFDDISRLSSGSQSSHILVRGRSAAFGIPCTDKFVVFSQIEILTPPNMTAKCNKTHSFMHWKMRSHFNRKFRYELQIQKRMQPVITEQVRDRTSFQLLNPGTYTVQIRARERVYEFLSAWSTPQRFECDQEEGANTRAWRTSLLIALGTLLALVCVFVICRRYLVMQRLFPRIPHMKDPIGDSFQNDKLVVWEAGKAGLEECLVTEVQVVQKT
Method: Binding affinity was tested by flow cytometry using purified antibodies. […] TF-1 cells (5×10^4 cells per sample) were incubated with varying concentrations of murine antibodies in 200 μL FACS buffer (DMEM medium supplemented with 2% normal goat serum). The cells were then pelleted, washed twice, and incubated for 1 hr with 100 μL of phycoerythrin (PE)-conjugated goat anti-mouse IgG-antibody (Jackson Laboratory). The cells were pelleted again, washed with FACS buffer and resuspended in 200 μL of PBS containing 1% formaldehyde. Samples were acquired using a FACSCalibur flow cytometer with the HTS multiwell sampler, or a FACS array flow cytometer, and analyzed using CellQuest Pro (all from BD Biosciences, San Diego, US). For each sample the geomean fluorescence intensity for FL2 was calculated and plotted against the antibody concentration in a semi-log plot. A dose-response curve was generated by non-linear regression and the EC50 value of each curve, which corresponds to the apparent dissociation constant (Kd) of each antibody, was calculated using GraphPad Prism v4 (GraphPad software, San Diego, CA).
FIG. 5A depicts the dose-response curves for each antibody. The value for the apparent dissociation constant (Kd) of each antibody was calculated using GraphPad Prism v4 (GraphPad software, San Diego, CA).
FIGS. 7B and 7C depict the dose-response curves for each antibody and the corresponding conjugates.

[6] = system: KO52 cells; assay: In vitro cytotoxicity assay (WST-8), KO52; format: cell-based, human; conditions: read-out: huCD123-CysMab-D5 IC50 pMol
[7] = system: UCSD-AML1 cells; assay: In vitro cytotoxicity assay, UCSD-AML1; format: cell-based, human; conditions: UCSD-AML1, EVI OX; read-out: huCD123-CysMab-D5 IC50 pMol
[8] = system: EOL-1 cells; assay: EOL-1 subcutaneous model in athymic nude mice, first study; format: in vivo, mouse
[9] = system: Namalwa cells; assay: In vitro cytotoxicity assay, Namalwa (CD123 negative); format: cell-based, human; conditions: read-out: huCD123-CysMab-D5 IC50 pMol
[10] = system: Molm-13 cells; assay: Molm-13 disseminated model in athymic nude mice; format: in vivo, mouse; conditions: for Median Survival Time: single i.v., day 7
[11] = system: MV4-11 cells; assay: MV4-11 subcutaneous model in CB.17 SCID mice (Example 29); format: in vivo, mouse; conditions: for % T/C (Day 49): single i.v., day 15
[12] = system: EOL-1 cells; assay: EOL-1 subcutaneous model in athymic nude mice, second study; format: in vivo, mouse
[13] = system: Kasumi-3-Luc-mCh-Puro cells; assay: Kasumi-3-Luc-mCh-Puro disseminated model in NSG mice; conditions: for Median Survival: i.v. days 7 and 41; for % Tumor Burden Delay (% TBD): designated BLI = vehicle group at day 45
[14] = system: SKM-1 cells; assay: In vitro cytotoxicity assay, SKM-1; format: cell-based, human; conditions: SKM-1, P53; read-out: huCD123-CysMab-D5 IC50 pMol
[15] = system: EOL-1 cells; assay: EOL-1 subcutaneous model in athymic nude mice, third study; conditions: 3 μg/kg by D5
[16] = system: THP1 cells; assay: In vitro cytotoxicity assay (WST-8), THP1; format: cell-based, human; conditions: THP-1, P53; read-out: huCD123-CysMab-D5 IC50 pMol
[17] = 3 μg/kg D5 (0.240 mg/kg huCD123)
[18] = 10 μg/kg D5 (0.80 mg/kg antibody)

B1: huCD123-CysMab-D5 (conjugate)
heavy: QVQLVQSGAEVKKPGASVKVSCKASGYIFTSSIMHWVRQAPGQGLEWIGYIKPYNDGTKYNEKFKGRATLTSDRSTSTAYMELSSLRSEDTAVYYCAREGGNDYYDTMDYWGQGTLVTVSS[here human IgG1 constant region with changes without letters]
light: DIQMTQSPSSLSASVGDRVTITCRASQDINSYLSWFQQKPGKAPKTLIYRVNRLVDGVPSRFSGSGSGNDYTLTISSLQPEDFATYYCLQYDAFPYTFGQGTKVEIKRTVAAPSVFIFPPSDEQLKSGTASVVCLLNNFYPREAKVQWKVDNALQSGNSQESVTEQDSKDSTYSLSSTLTLSKADYEKHKVYACEVTHQGLSSPVTKSFNRGEC
activity, fold higher than Mylotarg [1]: 74 fold | IC50 [2]: 8000 pM | IC50 [3]: 2 pM | IC50 [4]: 1 pM | effect of conjugation on binding affinity versus unconjugated antibody [5]: only moderately affected the binding affinities | IC50 [6]: 20 pM | IC50 [7]: 1 pM | CR ([8]; 1 μg/kg by payload): 3/6 | PR ([8]; 1 μg/kg by payload): 3/6 | Result ([8]; 1 μg/kg by payload): Active | % T/C (Day 15) ([8]; 1 μg/kg by payload, single i.v., day 7): 13% | CR ([8]; 3 μg/kg by payload): 5/6 | PR ([8]; 3 μg/kg by payload): 5/6 | IC50 [9]: 10000 pM | % ILS ([10]; 0.1 μg/kg by payload): > 262.5% and 262.5% | Tumor Growth Delay (T-C, Days) ([10]; 0.1 μg/kg by payload): 73.5 days | Median Survival Time ([10]; 0.1 μg/kg by payload): 101.5 days | % ILS ([10]; 0.3 μg/kg by payload): > 262.5% | Tumor Growth Delay (T-C, Days) ([10]; 0.3 μg/kg by payload): >73.5 days | Median Survival Time ([10]; 0.3 μg/kg by payload): >101.5 days | % ILS ([10]; 1 μg/kg by payload): > 262.5% | Tumor Growth Delay (T-C, Days) ([10]; 1 μg/kg by payload): >73.5 days | Median Survival Time ([10]; 1 μg/kg by payload): >101.5 days | CR ([11]; 0.3 μg/kg by payload): 0/6 | PR ([11]; 0.3 μg/kg by payload): 0/6 | Result ([11]; 0.3 μg/kg by payload): Inactive | % T/C (Day 49) ([11]; 0.3 μg/kg by payload): 69% | CR ([11]; 1 μg/kg by payload): 5/6 | PR ([11]; 1 μg/kg by payload): 5/6 | % T/C (Day 49) ([11]; 1 μg/kg by payload): 0% | CR ([11]; 3 μg/kg by payload): 6/6 | PR ([11]; 3 μg/kg by payload): 6/6 | % T/C (Day 49) ([11]; 3 μg/kg by payload): 0% | CR ([12]; 0.5 μg/kg by D5): 3/6 | PR ([12]; 0.5 μg/kg by D5): 3/6 | Result ([12]; 0.5 μg/kg by D5): Active | % T/C (Day 16) ([12]; 0.5 μg/kg by D5, single i.v., day 7): 11% | CR ([12]; 1 μg/kg by D5): 6/6 | PR ([12]; 1 μg/kg by D5): 6/6 | % ILS [13, 17]: 50% | T-C [13, 17]: 35 | Median Survival [13, 17]: 105 days | % T/C (median BLI) ([13]; 3 μg/kg by D5, day 27): 0.25% | % Tumor Burden Delay (% TBD) ([13]; 3 μg/kg by D5): > 65% | % ILS [13, 18]: 64% | T-C [13, 18]: 45 | Median Survival [13, 18]: 115 days | % T/C (median BLI) ([13]; 10 μg/kg by D5, day 27): 0.20% | % Tumor Burden Delay (% TBD) ([13]; 10 μg/kg by D5): > 75% | mice with extended survival as compared to control ([13]; both 3 μg/kg and 10 μg/kg doses): 6/6 | IC50 [14]: 7 pM | CR [15]: 8/8 | PR [15]: 8/8 | IC50 [16]: 30 pM
